# In PubChem BioAssay AID485364 (National Center for Advancing Translational Sciences (NCATS), 2010):
# Screen size: about 360,000 compounds; about 11,000 (3.1%) were called active. Inconclusive results, whose numbers are uncertain, are shown with a selection of clear calls. Calls come from the whole dose curve; as a rule, active = well fitted inhibition curve with a large enough effect; inconclusive = small, poorly fitted or top-dose-only effect; inactive = no such curve, though single readings can be large or run the other way. Potencies of inconclusive entries are left out as doubtful fits.
# Target: Schistosoma mansoni thioredoxin glutathione reductase (TGR) (UniProt Q962Y6)
# Assay: qHTS Assay for the Inhibitors of Schistosoma Mansoni Peroxiredoxins; note: nearly all actives have a fitted effect of over 60% in size
# Conditions: purified TGR, DTNB reduction, TNB absorbance 405 nm; activity change, negative = inhibition: at 114 µM (top of the series) unless noted
# Outline: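 Kinetic colorimetric format: TGR-catalysed, NADPH-driven DTNB reduction monitored via TNB absorbance. Enzyme dispensed at 20 nM; compound exposure 15 min at room temperature before reaction start.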
# % is set by controls: 0 for no effect and ±100 for the full control effect; potency is the fitted concentration of half-maximal effect; tags give direction and shape of the fitted curve.
SMILES,Potency,"activity change, negative = inhibition"
Cc1ccc(S(=O)(=O)CCC(=O)Nc2ccc3nc(C)sc3c2)cc1,"inconclusive [inhibitor, partial curve]",–
O=C(/C=C/N1CCOCC1)c1ccc(-c2ccccc2)cc1,"inconclusive [inhibitor, partial curve]",–
COc1ccccc1NC(=O)c1ccc(N)cc1,–,inactive: 9.43% [at 11.4 µM]
CCCCOc1ccc(C(=O)NCC(=O)NCCOc2ccc(C)cc2)cc1,inactive,–
COc1ccc(C2CC(=O)C(C=NCCN3CCOCC3)=C(O)C2)cc1 (configuration not stated),"inconclusive [inhibitor, partial curve]",–
COc1cccc(N2CCN(C(=O)c3ccc(CS(=O)c4ccc(C)cc4)o3)CC2)c1 (configuration not stated),"inconclusive [inhibitor, partial curve]",–
COc1cccc(N2CCN(C3C4CC5CC(C4)CC3C5)CC2)c1 (configuration not stated),inactive,–
CCCc1[nH][nH]c(=O)c1C(c1ccc(Br)cc1)C(C#N)C#N (configuration not stated),"inconclusive [inhibitor, full curve, poor fit]",–
OCCc1ccc(-c2ccc(Cl)cc2)o1,active: 44.7 µM,–
CCOc1ccccc1CN1CCNC(=O)C1CC(=O)N(C)CCc1cnn(C)c1 (configuration not stated),"inconclusive [inhibitor, full curve, poor fit]",–
CCOC(=O)c1ccc[n+](CC(=O)c2ccc(OC)cc2)c1,inactive,–
c1ccc(-c2ccc(CN3C[C@@H]4C(c5ccccc5)C5(c6cccnc6)CC4(C5)[C@H]3c3ccccc3)cc2)cc1 (some centres not stated),"inconclusive [inhibitor, partial curve]",–
COC(=O)C1=C(C)N(c2cccc(C)c2)C(=O)/C1=C\c1cccs1,inactive,–
O=C(Nc1ccc2c(c1)OCCO2)C1CCCN(S(=O)(=O)c2cccs2)C1 (configuration not stated),inactive,–
Cc1ccc(C)n1-c1nnc(N2CCCC(C(=O)NCc3cccc(Cl)c3)C2)s1 (configuration not stated),inactive,–
Cc1c(C(=O)NC2CC2)oc2ccccc12,inactive,–
C[C@@H](C(=O)N1CCN(C(=O)OC(C)(C)C)CC1)n1cc(-c2cn([C@@H](C)C(=O)N3CCN(C(=O)OC(C)(C)C)CC3)nn2)nn1,inactive,–
CS(=O)(=O)N1CCN(c2ccccc2NC(=S)NC(=O)c2cccs2)CC1,"inconclusive [inhibitor, full curve]",–
Cc1cc(C(=O)NNC(=O)/C=C/c2ccco2)c(C)o1,active: 2.82 µM,–
O=C(CCS(=O)(=O)c1cc(Br)cc2c1N(C(=O)C1CC1)CC2)N1CCN(c2ccccn2)CC1,inactive,–
CCCc1cc(C(=O)Nc2cc(Cl)ccc2O)no1,inactive,–
CCN1CCN(C(=O)c2cc3c(=O)n4ccccc4nc3n2Cc2ccccc2)CC1,"inconclusive [inhibitor, partial curve, poor fit]",–
O=C(NCCCN1CCOCC1)c1ccc(CS(=O)(=O)Cc2ccc(Cl)cc2)o1,"inconclusive [inhibitor, partial curve]",–
COc1cc(C(=O)NCCC(c2ccccc2)c2ccccc2)cc(OC)c1OC,"inconclusive [inhibitor, full curve, poor fit]",–

SMILES,Potency,"activity change, negative = inhibition"
CCCCCCCCCCOC(=O)Cn1c(COc2ccc(Cl)cc2)[n+](C)c2ccccc21,"inconclusive [inhibitor, single point]",–
Cc1ccc(OCC(=O)c2cc(C)n(Cc3ccco3)c2C)c([N+](=O)[O-])n1,active: 35.5 µM,–
Cc1c(C)[n+](=O)c2c(n1[O-])C(Br)CCC2Br (configuration not stated),active: 39.8 µM,–
CC(C)C(=O)NNC(=O)c1cc2sccc2s1,inactive,–
Cc1cccc(Nc2c([N+](=O)[O-])cc(C(=O)N3CC(=O)Nc4ccccc43)cc2[N+](=O)[O-])c1,"inconclusive [inhibitor, partial curve]",–
O=c1c(/C=N\NS(=O)(=O)c2ccccc2)coc2ccc(Cl)cc12,"inconclusive [inhibitor, full curve, poor fit]",–
CCOC(=O)C(=NC1CCS(=O)(=O)C1)NNc1ccc(Br)cc1 (configuration not stated),"inconclusive [inhibitor, partial curve, poor fit]",–
COc1cc(/C=C/C(=O)c2c(O)n(CCc3ccccc3)c(=O)[nH]c2=O)ccc1O,"inconclusive [inhibitor, partial curve]",–
Cc1ccccc1C(=O)OCc1cc(=O)n2nc(-c3cccs3)sc2n1,inactive,–
Cc1ccc2cc(C#N)c(NCc3ccco3)nc2c1,"inconclusive [inhibitor, full curve, poor fit]",–
CSc1nc2ccccc2cc1/C=C(\C#N)c1cccc(Cl)c1,"inconclusive [inhibitor, partial curve, poor fit]",–
COc1ccc(O)c(C(=O)c2cnn(-c3ccccc3)c2)c1,"inconclusive [inhibitor, partial curve]",–
Fc1cccc(Nc2ncnc3sc4c(c23)CCC4)c1,"inconclusive [inhibitor, single point]",–
COc1ccc(OC)c(CCNC(=O)C(C)n2nc(C)c3c(C)n(-c4ccccc4)nc3c2=O)c1 (configuration not stated),inactive,–
Nc1ccccc1N1CCOCC1,"inconclusive [inhibitor, partial curve]",–
Cc1ccc(C)c(Nc2ccc3nonc3c2[N+](=O)[O-])c1,"inconclusive [inhibitor, full curve]",–
Cc1ccc(C(=O)OC2=CC(=O)CC(C)(C)C2)cc1,active: 44.7 µM,–
COc1cccc(C(=O)Nc2c3c(nn2-c2cccc(C)c2C)CS(=O)(=O)C3)c1OC,"inconclusive [inhibitor, partial curve, poor fit]",–
Cn1cccc1CC(=O)N/N=C/c1ccco1,active: 39.8 µM,–
Nc1cc(N)nc(CS)n1,inactive,–
Cc1cc(NC(=O)CC(C)C)c(=O)n(Cc2cccc(F)c2)c1,"inconclusive [inhibitor, partial curve, poor fit]",–
COc1ccc2c(CNCCc3ccco3)c(C(=O)O)n(Cc3ccccc3)c2c1,"inconclusive [inhibitor, partial curve]",–
CCOC(=O)C1(CC2CC2)CCN(Cc2ccc(O)c(Cl)c2)CC1,inactive,–
COc1ccc(C(=O)N2CCN(C(=O)C3COc4ccccc4O3)CC2)cc1OC (configuration not stated),"inconclusive [inhibitor, partial curve]",–

SMILES,Potency,"activity change, negative = inhibition"
COc1ccccc1N1C(=O)S/C(=C\c2cc(C)n(C)c2C)C1=O,"inconclusive [inhibitor, partial curve, poor fit]",–
CN(C)[C@@H]1C(=O)C(C(N)=O)=C(O)[C@@]2(O)C(=O)C3=C(O)c4c(O)ccc(Cl)c4[C@@H](O)[C@H]3C[C@@H]12,active: 39.8 µM,–
NC(=O)c1ccsc1NC(=O)c1ccc2c(c1)CCCC2,inactive,–
O=C(Nc1nc2cc3c(cc2s1)OCCO3)c1ccco1,inactive,–
S=C(c1ccc(-c2ccc(Cl)cc2)o1)N1CCCCC1,"inconclusive [inhibitor, partial curve]",–
COc1ccc(-n2nnnc2S(=O)(=O)CC(=O)N2CCCCC2)cc1,active: 10 µM,–
COc1cc(C2Oc3ccccc3C=C2[N+](=O)[O-])cc(OC)c1OC (configuration not stated),active: 31.6 µM,–
C=CCNC(=O)C1CC2Cn3c(nc4ccccc43)C2N1C (configuration not stated),"inconclusive [inhibitor, single point]",–
CC(C)CC(=O)Nc1nnc(S(=O)(=O)N(C)Cc2ccco2)s1,active: 8.91 µM,–
COC(=O)CSc1cc(C)nc2ccc(OC)cc12,"inconclusive [inhibitor, partial curve]",–
Cc1cc2nc(-c3ccc4c(c3)CCC4)ccn2n1,inactive,–
CN(CC1CCOCC1)C(=O)CC1C(=O)NCCN1Cc1cccc(F)c1 (configuration not stated),"inconclusive [inhibitor, partial curve]",–
CC1CCC2(CC1)NC(=O)N(CC(=O)Nc1sc3c(c1C(N)=O)CCC3)C2=O (configuration not stated),active: 39.8 µM,–
CCOC(=O)C1=C(c2ccccc2)OC(N)=C(C#N)C1c1ccco1 (configuration not stated),"inconclusive [inhibitor, partial curve]",–
COc1ccc(S(=O)(=O)N2CCc3ccccc32)cc1C(=O)NCc1ccco1,"inconclusive [inhibitor, partial curve]",–
CN(C)/N=C1\C(=O)N(CN2CCN(c3ccccc3)CC2)c2ccccc21,"inconclusive [inhibitor, partial curve, poor fit]",–
O=C(NCCc1ccccc1)c1ccc(CS(=O)(=O)c2ccc(Br)cc2)o1,"inconclusive [inhibitor, single point]",–
COC(=O)C1Cc2c([nH]c3ccccc23)CN1 (configuration not stated),"inconclusive [inhibitor, partial curve]",–
CC[n+]1c(/C=C/c2ccc(N(C)C)cc2)ccc2ccccc21,"inconclusive [inhibitor, partial curve]",–
CCCCNC(=O)c1ccc(N2CCOCC2)c(NS(=O)(=O)c2ccc(OC)cc2)c1,inactive,–
Cc1ccc(S(=O)(=O)c2nc(-c3ccccc3)oc2NCc2cccnc2)cc1,"inconclusive [inhibitor, partial curve]",–
Brc1ccc2ncnc(NCc3ccco3)c2c1,"inconclusive [inhibitor, single point]",–
O=C(NC(=S)Nc1ccccc1[N+](=O)[O-])c1cncc(Br)c1,active: 20 µM,–
Cc1cccc(/C=C2\CS/C(=C\c3cccc(C)c3)C2=O)c1,"inconclusive [inhibitor, full curve]",–
